The list shows a part of the results. Further columns of the screen follow, without active or inactive calls.
Tests used:
Assay in all cases: Primary Screen for Target Class Profiling of Small Molecule Inhibitors of Methyltransferases
[1] = biological target: Glycine N-methyltransferase (Homo sapiens) (UniProt Q14749); details: purified enzyme, MTase-Glo SAH luminescence; measured here: GNMT inhibition; at 40 µM; stronger effect = lower value
Outline: (§1)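 Each enzyme was reacted with SAM and its substrate, with compounds tested once at 40 uM; SAH formed was read by MTase-Glo luminescence.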

[2] = biological target: Guanidinoacetate N-methyltransferase (Homo sapiens) (UniProt Q14353); details: purified enzyme, MTase-Glo SAH luminescence; measured here: GAMT inhibition; at 40 µM; stronger effect = lower value
Outline: as §1

[3] = biological target: Histamine N-methyltransferase (Homo sapiens) (UniProt P50135); details: purified enzyme, MTase-Glo SAH luminescence; measured here: HNMT inhibition; at 40 µM; stronger effect = lower value
Outline: as §1

[4] = biological target: Nicotinamide N-methyltransferase (Homo sapiens) (UniProt P40261); details: purified enzyme, MTase-Glo SAH luminescence; measured here: NNMT inhibition; at 40 µM; stronger effect = lower value
Outline: as §1

[5] = biological target: Phenylethanolamine N-methyltransferase (Homo sapiens) (UniProt P11086); details: purified enzyme, MTase-Glo SAH luminescence; measured here: PNMT inhibition; at 40 µM; stronger effect = lower value
Outline: as §1
% is scaled to controls: 0 for no effect and ±100 for the full control effect.

Structure (SMILES)	activity change, negative = inhibition [1] [%]	activity change, negative = inhibition [2] [%]	activity change, negative = inhibition [3] [%]	activity change, negative = inhibition [4] [%]	activity change, negative = inhibition [5] [%]
C[C@H]1CC[C@@]2(OC1)O[C@H]1CC3C4CC[C@H]5C[C@@H](O)[C@H](O)C[C@]5(C)C4=CC(=O)[C@]3(C)[C@H]1[C@@H]2C (some centres not stated)	-2.37	-8.4	2.29	-15.9	-4.59
O=C(/C=C/c1ccc(O)c(O)c1)OCCc1ccccc1	-12.1	13.2	3.76	-2.88	7.27
CC1CCC(NC(=O)C2(C)Cn3c(cc4sccc43)C(=O)N2Cc2ccccc2)CC1 (configuration not stated)	-4.51	4.99	-2.69	-5.9	-2.63
COc1ccc(OC)c2c1cc1n2CC(C)(C(=O)NC2CCC(C)CC2)N(Cc2cccnc2)C1=O (configuration not stated)	-0.145	2.23	5.64	1.63	0.602
Cc1cn2nc(C(=O)NC3CCC(C)CC3)cc2c(N2CCCC2)n1 (configuration not stated)	-7.97	-5.94	-30.2	-18.1	-9.73
CCCC(Nc1nc(-c2ccc(NC(=O)NCC)c(OC)c2)ncc1C)c1cccnc1 (configuration not stated)	-20.8	-11.3	-40.5	-25.3	-18.5
CCOC(=O)CNC(=O)C1(C)Cn2nc(C(=O)OCC)cc2C(=O)N1Cc1cccc(C)c1 (configuration not stated)	0.296	-2.14	4.93	1.46	-0.399
O=C(OC1C=C(CO)C2C(OC3OC(CO)C(O)C(O)C3O)OC=CC12)c1ccc(O)cc1 (configuration not stated)	0	-1.4	-1.4	-12.6	1.87
COCCc1noc(CNC(=O)c2ccc(-c3ccccc3Cl)o2)n1	-8.8	-4.71	-12.1	-3.04	-4.45
Fc1ccc(-c2nnn3c2nc(NCc2ccccc2)c2ccccc23)cc1	-4.12	0.975	-1.12	-4.09	-5.57
C=C1C(=O)O[C@@H]2C/C(C)=C\C(=O)/C=C(\C)[C@@H](OC(=O)/C(C)=C\C)[C@H](O)[C@@H]12	-4.8	-16.7	-10.6	-28.9	-12
CC(C)Oc1ccc(CN2C(=O)c3ccc(-c4ccco4)n3CC2(C)C(=O)NC2CCCC2)cc1 (configuration not stated)	-11.7	4.24	4.61	-8.05	0.194
CCCC1c2ccc(C)n2CCN1C(=O)Nc1ccccc1C(=O)OCC (configuration not stated)	-2.16	0	1.18	8.23	1.89
CC1(C(=O)NC2CCCCC2)Cn2c(nc3ccccc32)C(=O)N1Cc1ccccc1F (configuration not stated)	1.83	0	5.66	6.44	0.266
COc1cccc(C(=O)Cn2nc3n(CC(C)C)c(=O)c4ccc(C(=O)NC(C)C)cc4n3c2=O)c1	8.57	3.35	10.7	5.99	8.31
CCOCCCNC(=O)c1cc2cn(C3CC3)cc2s1	-9.66	-4.43	-2.15	0.15	-15.6
COc1cc(O)c2c(c1)C1OC1C[C@H](O)[C@H](O)C(=O)/C=C\C[C@H](C)OC2=O (some centres not stated)	-49.5	-4.42	-1.03	-12.3	-2.37
C=CCn1c(=O)c2ccc(C(=O)NC(C)C)cc2n2c(=O)n(CC(=O)Nc3ccccc3C)nc12	5.05	0	6.8	-0.918	6.52
COc1cccc(CNc2nc3c(S(=O)(=O)c4ccccc4)nnn3c3ccc(Cl)cc23)c1	0.398	2.88	-2.75	-8.79	-1.9
COCCNC(=O)c1ccc2c(=O)nc3c(-c4cccc(F)c4)n[nH]n3c2c1	0.735	-3.67	2.54	3.07	-1.93

Structure (SMILES)	activity change, negative = inhibition [1] [%]	activity change, negative = inhibition [2] [%]	activity change, negative = inhibition [3] [%]	activity change, negative = inhibition [4] [%]	activity change, negative = inhibition [5] [%]
CC(C)OCCCn1c(=O)c2ccccc2n2c(=O)n(Cc3ccc(F)cc3Cl)nc12	-5.65	0.954	3.38	-15.7	-3.15
CCC(C)NC(=O)Cn1c(=O)oc2cc(S(=O)(=O)NC3CCCC3)ccc21 (configuration not stated)	2.36	1.48	9.02	14.3	3.52
c1ccc(-n2cc(CN3CCCN(Cc4cccs4)CC3)nn2)cc1	-10.2	-13	-12.2	-19.7	-27.2
COc1ccc(OC)c(N2C(=O)C(Cl)=C(N3CCCCC3)C2=O)c1		1.42		-17.2	-9.44
CCOC(=O)c1cc2n(n1)CC(C)(C(=O)NCCCOC(C)C)N(c1ccc(F)cc1C)C2=O (configuration not stated)	6.41	6.72	11.1	4.85	6.49
C[C@@H]1COCCN1c1cc(C2(S(C)(=O)=O)CC2)nc(-c2cccc3[nH]ccc23)n1	-2.13	0.037	6.24	-9.87	2.95
C=C1C(=O)O[C@@H]2CC(C)=C([C@@H](C)CCCO)[C@@H](OC(=O)C(C)C)[C@H]12	1.44	-1.52	4.8	-18.4	3.99
CC(C)OCCCn1c(=O)c2ccccc2n2c(=O)n(Cc3ccc(Cl)cc3)nc12	-1.59	0	7.66	-15	-1.74
Cc1cc2c(F)c(Oc3ncnn4cc(OC[C@@H](C)OC(=O)[C@H](C)N)c(C)c34)ccc2[nH]1		4.02		-27.6	-7.56
CCN1C(=O)c2cc(C(=O)NCc3ccccn3)nn2CC1(C)C(=O)NC1CCCC1 (configuration not stated)	1.28	3.47	1.89	2.31	-1.51
COc1cc(SC)c(OC)cc1CN1CCC2(CC(=O)NC2=O)C1 (configuration not stated)	-7.61	-12.4	-3.92	-16.8	4.15
Cc1ccc(CN2C(=O)c3ccc(-c4ccco4)n3CC2(C)C(=O)NC2CCCCC2)cc1 (configuration not stated)	-22.2	-11.1	-5.69	-19.8	-9.85
CCCn1c(=O)c2ccc(C(=O)NCC(C)C)cc2n2c(=O)n(Cc3ccc(C)cc3)nc12	3.76	2.44	5.53	-0.553	5.4
CS(=O)(=O)Nc1ccc2oc3c(OC(F)F)ccc(C(=O)Nc4c(Cl)cncc4Cl)c3c2c1	-68.5	-0.426	-4.1	-16.8	-6.21
CCCCc1ccc(NC(=O)CN2C(=O)NC3(CCS(=O)(=O)CC3)C2=O)cc1	-6	-8.1	-1.39	-9.47	-2.4
CCOc1ccc(CNC(=O)C2c3ccccc3CC(=O)N2CC)cc1 (configuration not stated)	-8.92	-11.3	-6.24	-11.9	-14.6
Cc1cccc(CN2C(=O)c3cc(-c4ccco4)nn3CC2(C)C(=O)NCCC(C)C)c1 (configuration not stated)	-3.23	3.05	-3.25	-8.92	-6.51
COCCCNC(=O)c1cnc2n[nH]c(-c3ccccc3)c2n1	-85.7	-80.4	-87.8	-78.7	-78.3
COc1ccc(OC)c2c1cc1n2CC(C)(C(=O)NC2CCC(C)CC2)N(Cc2ccco2)C1=O (configuration not stated)	-0.252	0	3.5	-0.055	1.46
CCCC1c2cccn2CCN1C(=O)Nc1ccc(Br)cc1 (configuration not stated)	-7.42	4.64	-30.7	-8.02	-0.935

Structure (SMILES)	activity change, negative = inhibition [1] [%]	activity change, negative = inhibition [2] [%]	activity change, negative = inhibition [3] [%]	activity change, negative = inhibition [4] [%]	activity change, negative = inhibition [5] [%]
CCOC(=O)c1cc2n(n1)CC(C)(C(=O)NC1CCCCC1)N(c1ccccc1OC)C2=O (configuration not stated)	0.229	3.11	-3.53	-1.79	-0.596
CN1C(=O)c2cc(C(=O)NCc3ccco3)nn2CC1(C)C(=O)NCc1ccc(F)cc1 (configuration not stated)	9.06	1.41	8.8	14.1	7.36
CCC(CO)Nc1nc(NCc2ccccc2)c2ncn(C(C)C)c2n1 (configuration not stated)	6.3	12.5	16	-11.8	-0.36
CC1CCN(S(=O)(=O)c2ccc3c(ccn3CC(=O)NCCCc3ccccc3)c2)CC1	5.08	0	3.78	5.11	2.38
O=C(NCc1ccccc1)c1ccccc1OC1CN(C2CCC2)C1	-3.28	0.958	-15.8	-7.69	-3.97
CC(C)(C)OCC1CN(Cc2cccs2)[S+](=O)([O-])c2cccnc2O1 (configuration not stated)	-6.28	-5.48	-3.02	-13.8	-1.48
O=C1c2cc3sccc3n2CC(C(=O)NC2CCCCCC2)(c2ccccc2)N1Cc1cccc(F)c1 (configuration not stated)	3.66	0	0.854	3.94	-1.88
COC(=O)[C@H](Cc1ccc(OC)cc1)NC(=O)[C@H]1CN(C(=O)c2ccc(N(C)C)cc2)CCN1C(=O)c1cccs1	-7.34	-5.89	-4.7	-12.5	-9.55
COc1ncccc1-c1nc(-c2c(C)noc2C)cc2c1cc(C)n2CCN(C)C	-4.17	2.36	-17.5	-13	8.42
COCCn1nc2n(c1=O)CCN(Cc1ccc(Br)o1)CC2	-4.78	-2.07	-1.06	-14.7	-9.72
COC(=O)c1ncn2c1C(=O)N(Cc1ccc(OC)c(OC)c1)C(C)(C(=O)NC1CCCCCC1)C2 (configuration not stated)	1.38	0	2.82	-10.8	2.59
C#CC[C@H](c1nc2cc(Cl)ccc2c(=O)n1Nc1ccccc1)N(CCCN)C(=O)c1cccc(Cl)c1F	1.55	-9.61	4.32	-34.4	-8.32
C/C(=C\C(=O)C(C)C1CCC2C3=C(CCC21C)C1(C)CCC(=O)C(C)(C)C1(O)CC3)C(C)(C)O (configuration not stated)	1.32	6.22	9.8	-9.04	-4.17
Cc1nnc2n(-c3cccc(F)c3)c(=O)c3ccc(C(=O)NCc4ccc(Cl)cc4)cc3n12	-4.6	4.49	-0.696	4.23	-5.43
CC(C)OCCCNC(=O)c1cc(-c2cccc(C(F)(F)F)c2)c2cccn2n1	-6.5	-0.489	-0.674	-4.69	0.188
CC(/C=C/C1(O)C(C)(C)CC(O)CC1(C)O)OC1OC(CO)C(O)C(O)C1O (configuration not stated)	3.22	6.43	5.98	-5.54	7.58
CCCCNC(=O)c1cc2n(n1)CC(C)(C(=O)NCCC(C)C)N(C)C2=O (configuration not stated)	8.83	1.48	10	11.3	9.62
C[C@@H]1CCN(C(=O)CC#N)C[C@@H]1N(C)c1ncnc2[nH]ccc12		0.142		-21.4	-6.77
CCCCCC1CC1CC1CC1CCCCCCCC(=O)O (configuration not stated)		-0.907		-31.8	2.03
COc1ccc(OC)c(S(=O)(=O)N2CCCC(Cn3c(C)cnc3C3CC3)C2)c1 (configuration not stated)	-3.19	0	-0.468	-5.31	1.2

From PubChem BioAssay AID1745853 (National Center for Advancing Translational Sciences (NCATS), 2022)
